In the supplement of paper PMC4967469:
The IC50 comes from the fitted curve, where viability falls to half of the control; fits outside the tested doses are given as limits. The AUC spans the tested range (256-fold, ending at the top dose) of the same fit; the more sensitive the line, the further below 1. The top dose, if marked as inferred, was calculated from the reported fits. For some of these results: Where an entry number is given, a second screen of the drug exists; the two often differ.

Key:
Assay in all cases: Viability of human cancer cell lines after 72 h of drug (GDSC screen)
AZD6482 = compound: Cc1cc([C@@H](C)Nc2ccccc2C(=O)O)c2nc(N3CCOCC3)cc(=O)n2c1 [AZD6482]
Method: (§1)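 Human cancer cell lines in 384-well plates, medium with 10% serum, drug for 72 h over a 256-fold dose range (nine 2-fold or five 4-fold steps up to the top dose). Adherent lines were fixed and stained with the nucleic acid dye Syto60, suspension lines read with resazurin; signal relative to control wells, capped at 0 and 100%. One two-parameter sigmoid per drug and line, fitted in a mixed model over all curves with the slope shared within a line.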

BMN-673 = compound: Cn1ncnc1[C@H]1c2n[nH]c(=O)c3cc(F)cc(c23)N[C@@H]1c1ccc(F)cc1 [BMN-673]; details: top dose 10 µM; top dose inferred
Method: as §1

MLN4924 = compound: NS(=O)(=O)OC[C@@H]1C[C@@H](n2ccc3c(N[C@H]4CCc5ccccc54)ncnc32)C[C@@H]1O [MLN4924]; details: top dose 1 µM; top dose inferred
Method: as §1

[1] = top dose 5 µM, screen: GDSC drug entry 1066, top dose inferred
[2] = top dose 5.12 µM, screen: GDSC drug entry 156

| Cell Line | AUC (AZD6482; [1]) | IC50 (AZD6482; [1]) | AUC (AZD6482; [2]) | IC50 (AZD6482; [2]) | AUC (BMN-673) | IC50 (BMN-673) | AUC (MLN4924) | IC50 (MLN4924) |
| --- | --- | --- | --- | --- | --- | --- | --- | --- |
| C-33-A (cervix, adherent) | 0.967 | > 5 µM | 0.976 | > 5.12 µM | 0.476 | 0.537 µM | 0.657 | 0.171 µM |
| CA46 (Burkitt lymphoma, suspension) | 0.985 | > 5 µM | 0.853 | 4.46 µM | 0.95 | > 10 µM | 0.885 | > 1 µM |
| CAKI-1 (kidney, adherent) | 0.784 | 3.38 µM | 0.712 | 1.74 µM | 0.817 | 9.68 µM | 0.912 | > 1 µM |
| CAL-29 (bladder, adherent) | 0.654 | 0.865 µM | 0.713 | 1.35 µM | 0.736 | 3.14 µM | 0.683 | 0.213 µM |
| CAL-39 (cervix, adherent) | 0.905 | > 5 µM | 0.744 | 1.65 µM | 0.838 | 7.13 µM | 0.815 | 0.574 µM |
| CAL-51 (breast, adherent) | 0.725 | 1.23 µM | 0.962 | > 5.12 µM | 0.214 | 0.105 µM | 0.703 | 0.213 µM |
| CAL-54 (kidney, adherent) | 0.665 | 0.965 µM | 0.799 | 2.87 µM | 0.877 | > 10 µM | 0.905 | > 1 µM |
| CAL-72 (osteosarcoma, adherent) | 0.958 | > 5 µM | 0.92 | > 5.12 µM | 0.891 | > 10 µM | 0.837 | 0.846 µM |
| CAL-85-1 (breast, adherent) | – | – | 0.744 | 2 µM | 0.864 | > 10 µM | 0.879 | > 1 µM |
| CAL-120 (breast, adherent) | 0.881 | > 5 µM | 0.949 | > 5.12 µM | 0.813 | 7.44 µM | 0.798 | 0.64 µM |
| CCF-STTG1 (glioma, adherent) | 0.956 | > 5 µM | 0.673 | 0.978 µM | 0.773 | 3.93 µM | 0.981 | > 1 µM |
| CCRF-CEM (lymphoblastic leukaemia, suspension) | 0.903 | 4.74 µM | 0.845 | 2.85 µM | 0.621 | 1.27 µM | 0.781 | 0.347 µM |
| CESS (acute myeloid leukaemia, suspension) | 0.983 | > 5 µM | 0.856 | 3.21 µM | 0.677 | 1.79 µM | 0.695 | 0.201 µM |
| CFPAC-1 (pancreas, adherent) | 0.917 | > 5 µM | 0.769 | 2.22 µM | 0.785 | 4.95 µM | 0.865 | > 1 µM |
| CHL-1 (melanoma, adherent) | 0.887 | > 5 µM | 0.838 | 3.19 µM | 0.875 | 8.9 µM | 0.873 | 0.869 µM |
| CL-40 (large intestine, adherent) | 0.936 | > 5 µM | – | – | 0.805 | > 10 µM | 0.947 | > 1 µM |
| CMK (acute myeloid leukaemia, suspension) | 0.958 | > 5 µM | 0.873 | 3.67 µM | 0.67 | 1.7 µM | 0.81 | 0.431 µM |

| Cell Line | AUC (AZD6482; [1]) | IC50 (AZD6482; [1]) | AUC (AZD6482; [2]) | IC50 (AZD6482; [2]) | AUC (BMN-673) | IC50 (BMN-673) | AUC (MLN4924) | IC50 (MLN4924) |
| --- | --- | --- | --- | --- | --- | --- | --- | --- |
| CML-T1 (chronic myeloid leukaemia, suspension) | 0.982 | > 5 µM | – | – | 0.173 | 0.0823 µM | 0.816 | 0.437 µM |
| COLO-205 (large intestine, suspension) | 0.961 | > 5 µM | 0.935 | > 5.12 µM | 0.976 | > 10 µM | 0.933 | > 1 µM |
| COLO-320-HSR (large intestine, suspension) | 0.972 | > 5 µM | 0.979 | > 5.12 µM | 0.984 | > 10 µM | 0.985 | > 1 µM |
| COLO-678 (large intestine, semi-adherent) | 0.98 | > 5 µM | 0.958 | > 5.12 µM | 0.97 | > 10 µM | 0.943 | > 1 µM |
| COLO-679 (melanoma, adherent) | 0.893 | > 5 µM | 0.88 | > 5.12 µM | 0.933 | > 10 µM | 0.674 | 0.204 µM |
| COLO-680N (oesophagus, adherent) | 0.955 | > 5 µM | 0.883 | > 5.12 µM | 0.949 | > 10 µM | 0.964 | > 1 µM |
| COLO-792 (melanoma, adherent) | – | – | 0.951 | > 5.12 µM | 0.938 | > 10 µM | 0.894 | > 1 µM |
| COLO-824 (breast, adherent) | 0.984 | > 5 µM | 0.948 | > 5.12 µM | 0.977 | > 10 µM | 0.826 | 0.623 µM |
| COR-L88 (small cell lung carcinoma, adherent) | 0.978 | > 5 µM | 0.982 | > 5.12 µM | 0.985 | > 10 µM | 0.945 | > 1 µM |
| COR-L105 (lung adenocarcinoma, adherent) | 0.83 | 4.16 µM | 0.869 | > 5.12 µM | 0.947 | > 10 µM | 0.902 | > 1 µM |
| COR-L321 (lung, suspension) | 0.982 | > 5 µM | – | – | 0.979 | > 10 µM | 0.916 | > 1 µM |
| CP66-MEL (melanoma, adherent) | 0.973 | > 5 µM | 0.961 | > 5.12 µM | 0.963 | > 10 µM | 0.923 | > 1 µM |
| CPC-N (small cell lung carcinoma, suspension) | 0.974 | > 5 µM | 0.985 | > 5.12 µM | 0.914 | > 10 µM | 0.884 | > 1 µM |
| CRO-AP2 (B-cell lymphoma, suspension) | 0.935 | > 5 µM | – | – | 0.751 | 2.92 µM | 0.599 | 0.112 µM |
| T47D (breast, adherent) | – | – | – | – | 0.974 | > 10 µM | 0.943 | > 1 µM |
| U-266 (myeloma, semi-adherent) | – | – | – | – | 0.981 | > 10 µM | 0.98 | > 1 µM |
